# “And” between values parts separate entries of the source, which are not always exact repeats. Equal values may be shown once. Inconclusive results, whose numbers are uncertain, are shown with a selection of clear calls. A potency beside an inconclusive call is a rough fit, not a confirmed value. The source made the active and inactive calls. Calls follow the shape of the dose curve; as a rule, active = well fitted curve in the direction sought with a large enough effect; inconclusive = small, poorly fitted or top-dose-only effect, or another doubt; inactive = no such curve, though single readings can be large; an effect the other way counts as inactive or inconclusive.
# What was measured:
# [1] = Viability qHTS for spleen associated tyrosine kinase inhibitor (SYKi) naive MV4-11 cells (AID 1963823); settings: MV4-11 AML viability, CellTiter-Glo luminescence, 72 h; viability (% of control): at 45 µM (top of the series); also: nearly all actives have a fitted effect of over 40% in size
# How it was run: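 qHTS, SYK inhibitor-naive MV4-11; 500 cells/well; 72 hr compound exposure, 37 C; CellTiter-Glo added, 10 min RT; luminescence read.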
# [2] = Cellular viability qHTS for adrenocortical cancer (ACC) cell line SW-13 (AID 1963989); settings: SW-13 ACC cells viability, CellTiter-Glo, 48 h; activity (max response): stronger effect = lower value; also: nearly all actives have a fitted effect of over 65% in size;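 as to activity (max response): cells grown in serum-free medium with ITS supplement; % is scaled to controls: 0 for no effect and ±100 for the full control effect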
# How it was run: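 Compound titrations (up to 46 uM final, in DMSO) were applied to SW-13 cells for 48 h at 37C/5% CO2. Reading used CellTiter-Glo after 20 min at room temperature; fitted curves yielded IC50 and efficacy.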
# [3] = Cellular viability qHTS for adrenocortical cancer (ACC) cell line NCI-H295R (AID 1963990); settings: CellTiter-Glo ATP luminescence, 48 h; activity change, negative = viability loss: at 46.1 µM (top of the series); also: nearly all actives have a fitted effect of over 60% in size;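 as to activity change, negative = viability loss: 0% = DMSO only wells and -100% = full killing with cytotoxic reference compound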
# How it was run: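 Readout: CellTiter-Glo luminescence, 20 min RT. Exposure: 48 h, 37C/5% CO2. Cells: NCI-H295R, ITS-DMEM serum-free. Range: up to 46 uM. Analysis: 4PL fit, IC50 plus efficacy.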
# Potency is read from the fitted curve at half-maximal effect; tags tell the direction and shape of the fitted curve.
Structure (SMILES),Potency [1],activity (max response) [2],Potency [3],Potency [2]
NC(=O)CC[C@@H](N)C(=O)O,inconclusive: 0.0008 µM,inactive: 12.6%,"inconclusive: 6.51 µM [cytotoxic, partial curve, poor fit]",–
C[C@H](Nc1ncnc2nc[nH]c12)c1cc2cccc(Cl)c2c(=O)n1-c1ccccc1,"inconclusive: 14.6 µM [cytotoxic, partial curve] and active: 11.8 µM",inactive: -1.12%,"inconclusive: 5.01 µM [cytotoxic, partial curve, poor fit]",–
COc1c(C)c2c(c(O)c1C/C=C(\C)CCC(=O)OCCN1CCOCC1)C(=O)OC2,active: 1.5 µM and active: 332 nM,–,"inconclusive: 731 nM [cytotoxic, full curve] and active: 1.26 µM","inconclusive: 5.17 µM [cytotoxic, full curve] and inconclusive: 2.51 µM [cytotoxic, full curve]"
Cc1cc(C(C#N)c2ccc(Cl)cc2)c(Cl)cc1NC(=O)c1cc(I)cc(I)c1O (stereo unspecified),"inconclusive: 16.4 µM [cytotoxic, partial curve]",–,active: 3.66 µM,active: 4.11 µM
COC(=O)c1ccc(NC(C)=O)cc1OC,inactive,inactive: -6.56%,inactive,–
CN(C(=O)CN(CCO)CC(=O)N(C)C(C)(C)Cc1ccccc1)C(C)(C)Cc1ccccc1,"inconclusive: 7.5 µM [cytotoxic, partial curve]",–,active: 23.1 µM,"inconclusive: 20.6 µM [cytotoxic, single point]"
Cc1cccc(Nc2cc(Cl)nc(SCC(=O)O)n2)c1C,"inactive and inconclusive: 18.4 µM [cytotoxic, partial curve, poor fit]",–,"inconclusive: 23.1 µM [cytotoxic, single point]","inconclusive: 18.4 µM [cytotoxic, single point]"
CC(C)(c1ccc(O)cc1)c1ccc(O)cc1,"inconclusive: 19.7 µM [cytotoxic, partial curve]",–,"inconclusive: 35.5 µM [cytotoxic, partial curve]","inconclusive: 31.6 µM [cytotoxic, single point]"
NC(=O)c1cnc(-c2ccc(C3(N)CCC3)cc2)c(-c2ccccc2)c1,"inconclusive: 16.6 µM [cytotoxic, partial curve] and inconclusive: 2.59 µM [cytotoxic, full curve]",–,"inconclusive: 35.5 µM [cytotoxic, single point]","inconclusive: 22.4 µM [cytotoxic, single point]"
C=C1/C(=C\C=C2/CCC[C@]3(C)[C@@H]([C@H](C)CCCC(C)(C)O)CC[C@@H]23)C[C@@H](O)C[C@@H]1O,"inconclusive: 10.5 nM [cytotoxic, full curve] and active: 18.6 nM",–,"inconclusive: 7.08 µM [cytotoxic, partial curve]","inconclusive: 22.4 µM [cytotoxic, partial curve] and active: 28.2 µM"
COc1ccc(OC(=O)N(CC(=O)O)Cc2ccc(OCCc3nc(-c4ccccc4)oc3C)cc2)cc1,inactive,–,"inconclusive: 16.4 µM [cytotoxic, partial curve, poor fit]","inconclusive: 18.4 µM [cytotoxic, single point]"
C[C@H](NC(=O)c1c(N)nn2cccnc12)c1cc2cccc(C#Cc3cnn(C)c3)c2c(=O)n1-c1ccccc1,active: 7.23 µM,inactive: -17.5%,"inconclusive: 8.02 µM [cytotoxic, partial curve, poor fit]",–
CC[C@H](C)C(=O)O[C@H]1CCC=C2C=C[C@H](C)[C@H](CC[C@@H]3C[C@@H](O)CC(=O)O3)[C@H]21,"inconclusive: 14.8 µM [cytotoxic, partial curve]",inactive: -23.7%,"inconclusive: 17.8 µM [cytotoxic, partial curve, poor fit]",–
NC(=O)c1cc[n+](CC2=C(C(=O)[O-])N3C(=O)[C@@H](NC(=O)Cc4cccs4)[C@H]3SC2)cc1,"inconclusive: 8.41 µM [cytotoxic, partial curve, poor fit]",inactive: 11.8%,inactive,–
Cc1ccc([C@@H]2O[C@H](CO)[C@@H](O)[C@H](O)[C@H]2O)cc1Cc1ccc(-c2ccc(F)cc2)s1,active: 18.6 µM,–,"inconclusive: 35.5 µM [cytotoxic, single point]","inconclusive: 25.1 µM [cytotoxic, partial curve]"
Cc1nc2ccccc2n1Cc1ccc(Cl)cc1,"inconclusive: 0.266 µM [cytotoxic, full curve]",–,"inconclusive: 25.9 µM [cytotoxic, single point]","inconclusive: 1.84 µM [cytotoxic, partial curve]"
Fc1ccc(C(c2ccc(F)cc2)N2CCN(C/C=C/c3ccccc3)CC2)cc1,"inconclusive: 18.8 µM [cytotoxic, partial curve]",–,"inconclusive: 29.1 µM [cytotoxic, single point]","inconclusive: 18.4 µM [cytotoxic, single point]"

Structure (SMILES),Potency [1],activity (max response) [2],Potency [3],Potency [2]
CN1CCN(CCCN2c3ccccc3Sc3ccc(S(=O)(=O)N(C)C)cc32)CC1,active: 11.9 µM,–,"inconclusive: 29.1 µM [cytotoxic, single point]","inconclusive: 18.4 µM [cytotoxic, single point]"
CC(C)c1cc(CNc2nc(Nc3cc(C4CC4)[nH]n3)cc(N3CCN(C)CC3)n2)on1,"active: 25.9 nM and inconclusive: 29.5 nM [cytotoxic, full curve]",–,active: 1.58 µM,active: 3.98 µM
COc1ccc(CCN2CCC(Nc3nc4ccccc4n3Cc3ccc(F)cc3)CC2)cc1,active: 4.22 µM,–,active: 14.6 µM,active: 20.6 µM
Nc1nc2ccc([N+](=O)[O-])cc2s1,"inconclusive: 19.3 µM [cytotoxic, partial curve]",–,"inconclusive: 63.1 µM [cytotoxic, single point]","inconclusive: 56.2 µM [cytotoxic, single point]"
CN1CCN(C(=O)c2ccc3cc(CCNc4ncnc5ccc(C#N)cc45)ccc3c2)CC1,active: 0.92 µM,–,"inconclusive: 25.1 µM [cytotoxic, partial curve, poor fit]","inconclusive: 11.2 µM [cytotoxic, partial curve]"
CN(C)CCOC1=Cc2ccccc2Sc2ccc(Cl)cc21,"inconclusive: 21.1 µM [cytotoxic, partial curve]",–,active: 20.6 µM,"inconclusive: 20.6 µM [cytotoxic, single point]"
COc1c(C)c2c(c(O)c1C/C=C(\C)CCC(=O)O)C(=O)OC2,active: 750 nM and active: 1.32 µM,–,"inconclusive: 731 nM [cytotoxic, full curve, poor fit] and inconclusive: 3.16 µM [cytotoxic, full curve]","inconclusive: 14.1 µM [cytotoxic, partial curve]"
Cc1cc(C(=O)Nc2cc(Oc3ccc4nc(NC(=O)C5CC5)cn4n3)ccc2C)n(C)n1,"inconclusive: 16.4 µM [cytotoxic, partial curve]",–,active: 22.4 µM,"inconclusive: 15.8 µM [cytotoxic, partial curve]"
COC(C)(C)CCn1nc(Nc2c(C)cccc2C)c2cnc(Nc3ccc(OCCN4CCCC4)c(F)c3)nc21,active: 731 nM and active: 742 nM,–,active: 3.98 µM,active: 2.82 µM
Cc1cc(-c2nc3cc(F)ccc3s2)ccc1NC(=O)[C@@H](N)CCCCN,active: 2.31 µM,–,active: 17.8 µM,active: 25.1 µM
COc1cc(O)cc(O)c1,"inconclusive: 0.0013 µM [rising, full curve, poor fit]",–,inactive,–
COc1cc(NC(C)CCCN)c2ncccc2c1 (stereo unspecified),"inconclusive: 5.96 µM [cytotoxic, full curve]",–,active: 8.2 µM,–
O=c1sn(-c2cccc3ccccc23)c(=O)n1Cc1ccccc1,"active: 14.6 µM and inconclusive: 5.25 µM [cytotoxic, full curve]",–,"inconclusive: 7.08 µM [cytotoxic, full curve]",–
Nc1c2c(nc3ccccc13)CCCC2O (stereo unspecified),inactive,–,inactive,–
CC1=C(/C=C/C(C)=C/C=C/C(C)=C/C(=O)Nc2ccc(O)cc2)C(C)(C)CCC1,"inconclusive: 4.73 µM [cytotoxic, partial curve, poor fit] and inconclusive: 9.34 µM [cytotoxic, partial curve]",–,"inconclusive: 11.2 µM [cytotoxic, single point]",–
CNc1nc(-c2ccc3c(N)n[nH]c3c2)cc(N2C[C@@H](C(=O)NC3CCCCC3)CC[C@H]2C)n1,active: 5.25 µM,–,"inconclusive: 8.91 µM [cytotoxic, partial curve, poor fit]","inconclusive: 28.2 µM [cytotoxic, single point]"
C[C@]12CCC(=O)C=C1[C@@H]1C[C@@H]1[C@H]1[C@@H]3[C@@H]4C[C@@H]4[C@@]4(CCC(=O)O4)[C@@]3(C)CC[C@@H]12,"inconclusive: 21.1 µM [cytotoxic, partial curve] and inconclusive: 20.9 µM [cytotoxic, partial curve]",–,"inconclusive: 23.1 µM [cytotoxic, single point] and inactive",–

# — PubChem BioAssay (NCATS)
